Assay results taken from the supplement of paper PMC11417369.
± gives the standard deviation of the averaged measurements. Some of the results follow.

What follows are sequences tested on PfAP2-I AP2 domain 3 (GST-tagged) (assay: gcPBM binding intensity (ln(normalized median fluorescence intensity)); higher = stronger DNA binding).
Summary of the method: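 In this array assay, P. falciparum DNA-binding domains with a GST tag, expressed in E. coli, were applied for 1 h to primer-extended double-stranded 36-bp intergenic genomic probes and negative controls on an Agilent 4 × 180k array. Bound protein was visualised with Alexa488 anti-GST antibody at 488 nm. Binding intensity is the highest Masliner-normalised natural-log median intensity across replicate spots of either probe orientation.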

Sequence | gcPBM binding intensity (ln)
AATAGATTTTTATGCGTGCACACATTTAACAAAAAA | 10.38 ± 0.035
GTGCTAGTATTTAATACACACAATTGAAGTTCCTGA [CACACA_site1452] | 8.21 ± 0.33
TACACCAGTTGTGGGAGTACACAAAAAAAGGGAAAA [XGTACX_site6047] | 8.24 ± 0.25
TTCTGTTCAAAATATGAACACACACCGATATATATA [CACACA_site8637] | 8.14 ± 0.79
AAAAATATAAAGAAATGTACTTATAAAAATCCCTAC [XGTACX_site3824] | 7.81 ± 0.41
TGCAGTCTGGAGAAAAGTACACAGTATCTGGTAGCT [XGTACX_site2013] | 7.71 ± 0.69
AATATCATAAAATAAAGTACAAATATATATTGAAAA [XGTACX_site8813] | 7.79 ± 0.57
CTTTATCTTTTTCATTGTACTTTATTTTAAAATTAA [XGTACX_site4858] | 8.18 ± 0.57
TATTTATGTAGATACACACCCATGTTATATGGAGGT [CACACA_site3461] | 7.63 ± 0.61
TTTCTTTTTTTTTTTATTTACCTGAATTATGTATTA [TGCATGCA_negctrl_site345] | 7.42 ± 0.57
GCTTGTTCAAAAATGAGTACATACAAATAGTTGTAT [XGTACX_site1770] | 8.13 ± 0.028
CTCGTATATATAATACGTACATATTATATATATATA [XGTACX_site1704] | 9.005 ± 0.064
TTTACATACAAATTAACACACATATAGAAAAGAGAA [CACACA_site1889] | 8.07 ± 0.65
TCCTTTCTTTTTTAAACATGCATATGTAATATAAAT [TGCATGCA_site979] | 7.89 ± 0.6
CCTTCATCATATTTAACACACAGAGAAAAAGCGGAT [CACACA_site274] | 8.23 ± 0.57
AAAAAAAAAAAAAAAAAAACCACAAACAAATATGAA [TGCATGCA_negctrl_site34] | 9.24 ± 0.057
TTTTAAAATATATTTGTATATATATATATATATATA [XGTACX_negctrl_site536] | 9.15 ± 0.42
ATAATATAATAATACACACTCATTATATATATAAAG [CACACA_site3956] | 7.83 ± 0.38
AAAAAAAATAAACACACACACATACCCATAAATATA [CACACA_site5980] | 7.88 ± 0.29
TTTGAAATATTTATTTGTACATATACACACTTAAAT [XGTACX_site8321] | 7.88 ± 0.35
ATATTATTTTGTCAGGGTACATTCCATAAGTTTTTT [XGTACX_site6855] | 7.98 ± 0.59
TTATAAATTTAAAGTAGTACTATACTACTATTTTAT [XGTACX_site3038] | 7.62 ± 0.23
CATTTTTTATAATAATGTACATGTATTAAAAAAAAA [XGTACX_site6390] | 8.02 ± 0.61
TTTATAAGAATTACTAGTACATATAAGGAATTATAT [XGTACX_site3953] | 7.63 ± 0.5
ATCCACAAAATAGGATGTACATATAAAATAAATAAA [XGTACX_site5362] | 7.64 ± 0.38
